Reference: a collection of fitness landscapes (doi:10.1016/j.celrep.2020.107928)
In all, about 81,000 sequences were measured (“one-hybrid fitness for binding parS DNA”: median about -0.17, highest 2% from about 0.51 on). Some of the results follow.

B1: Caulobacter ParB omega fusion; a variant is named by its letters at X, in order, B8GW30 (parent)
chain: MESVVVGEPGMSEGRRGLGRGLSALLGEVDAAPAQAPGEQLGGSREAPIEILQRNPDQPRRTFREEDLEDLSNSIREKGVLQPILVRPSPDTAGEYQIVAGERAWRAAQRAGLKTVPIMVRELDDLAVLEIGIIENVQRADLNVLEEALSYKVLMEKFERTQENIAQTIGKSXSHVANXMRLLXLPDEVQSYLVSGELTAXHARAIAAAADPVALAKQIIEGGLSVRETEALARKAPNLSAGKSKGGRPPRVKDTDTQALESDLSSVLGLDVSIDHRGSTGTLTITYATLEQLDDLCNRLTRGI

Variants of: B1
Test: one-hybrid fitness for binding parS DNA (scaled: cognate 1, non-cognate 0); higher = stronger binding
Settings: with parS DNA site
Method in brief: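 Pre- and post-selection plasmids were Illumina-sequenced, three replicate libraries were pooled, and any variant with under 10 reads was removed. The libraries were Caulobacter ParB with four specificity codons randomised, selected in E. coli USO through a HIS3 reporter whose site is 19 bp from the promoter. Cells grew 48 hours at 37°C on M9 without histidine, with 0.1 mM IPTG and 5 mM 3-AT. Fitness is the log change in variant-to-wild-type read ratio, rescaled against cognate and non-cognate.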

KTIT and AGPD cannot be ordered by “one-hybrid fitness for binding parS DNA” value: at most 0.2 for the first, at most 0.2 for the second.

EPWV and PSPC cannot be ordered by “one-hybrid fitness for binding parS DNA” value: at most 0.2 for the first, at most 0.2 for the second.

THGE and FPTM cannot be ordered by “one-hybrid fitness for binding parS DNA” value: at most 0.2 for the first, at most 0.2 for the second.

CHTY and NKAY cannot be ordered by “one-hybrid fitness for binding parS DNA” value: at most 0.2 for the first, at most 0.2 for the second.

IPAF and ETRH cannot be ordered by “one-hybrid fitness for binding parS DNA” value: at most 0.2 for the first, at most 0.2 for the second.

DNRM and QPLN cannot be ordered by “one-hybrid fitness for binding parS DNA” value: at most 0.2 for the first, at most 0.2 for the second.

AQRR and LPNP cannot be ordered by “one-hybrid fitness for binding parS DNA” value: at most 0.2 for the first, at most 0.2 for the second.

RHIN and EIKV cannot be ordered by “one-hybrid fitness for binding parS DNA” value: at most 0.2 for the first, at most 0.2 for the second.

ARPY and RFHW cannot be ordered by “one-hybrid fitness for binding parS DNA” value: at most 0.2 for the first, at most 0.2 for the second.

YQRC and DYIT cannot be ordered by “one-hybrid fitness for binding parS DNA” value: at most 0.2 for the first, at most 0.2 for the second.

LLKM and SMER cannot be ordered by “one-hybrid fitness for binding parS DNA” value: at most 0.2 for the first, at most 0.2 for the second.

First: RELC
Second: RRWA
The “one-hybrid fitness for binding parS DNA” value of the first is lower: at most 0.2 for the first, 0.834 for the second.

VSYS and AWVK cannot be ordered by “one-hybrid fitness for binding parS DNA” value: at most 0.2 for the first, at most 0.2 for the second.

MFTS and QENM cannot be ordered by “one-hybrid fitness for binding parS DNA” value: at most 0.2 for the first, at most 0.2 for the second.

HPKW and ATYE cannot be ordered by “one-hybrid fitness for binding parS DNA” value: at most 0.2 for the first, at most 0.2 for the second.

IGLR and CIPT cannot be ordered by “one-hybrid fitness for binding parS DNA” value: at most 0.2 for the first, at most 0.2 for the second.

TLPD and YEKT cannot be ordered by “one-hybrid fitness for binding parS DNA” value: at most 0.2 for the first, at most 0.2 for the second.

Going from RAWN to AATL, the “one-hybrid fitness for binding parS DNA” value falls from 0.384 to at most 0.2.

KTAT and HNWA cannot be ordered by “one-hybrid fitness for binding parS DNA” value: at most 0.2 for the first, at most 0.2 for the second.

LCFD and DMES cannot be ordered by “one-hybrid fitness for binding parS DNA” value: at most 0.2 for the first, at most 0.2 for the second.

GVVD and LVFR cannot be ordered by “one-hybrid fitness for binding parS DNA” value: at most 0.2 for the first, at most 0.2 for the second.

RLID and STKR cannot be ordered by “one-hybrid fitness for binding parS DNA” value: at most 0.2 for the first, at most 0.2 for the second.

Going from RFCN to NHSC, the “one-hybrid fitness for binding parS DNA” value falls from 0.375 to at most 0.2.

YMYC and LSYA cannot be ordered by “one-hybrid fitness for binding parS DNA” value: at most 0.2 for the first, at most 0.2 for the second.

CIVG and RAYE cannot be ordered by “one-hybrid fitness for binding parS DNA” value: at most 0.2 for the first, at most 0.2 for the second.

RPCG and RKLV cannot be ordered by “one-hybrid fitness for binding parS DNA” value: at most 0.2 for the first, at most 0.2 for the second.

RAKQ and GPCD cannot be ordered by “one-hybrid fitness for binding parS DNA” value: at most 0.2 for the first, at most 0.2 for the second.

Compared with RMVM, CRTC is lower in “one-hybrid fitness for binding parS DNA” value: 0.361 for the first, at most 0.2 for the second.

RCSD and QMNF cannot be ordered by “one-hybrid fitness for binding parS DNA” value: at most 0.2 for the first, at most 0.2 for the second.

TSTW and FSIP cannot be ordered by “one-hybrid fitness for binding parS DNA” value: at most 0.2 for the first, at most 0.2 for the second.

YSNN and PGWS cannot be ordered by “one-hybrid fitness for binding parS DNA” value: at most 0.2 for the first, at most 0.2 for the second.

HYIA and DFEF cannot be ordered by “one-hybrid fitness for binding parS DNA” value: at most 0.2 for the first, at most 0.2 for the second.

CVRD and VMRV cannot be ordered by “one-hybrid fitness for binding parS DNA” value: at most 0.2 for the first, at most 0.2 for the second.

Going from RYSA to MSRL, the “one-hybrid fitness for binding parS DNA” value falls from 0.535 to at most 0.2.

GGDV and TVLT cannot be ordered by “one-hybrid fitness for binding parS DNA” value: at most 0.2 for the first, at most 0.2 for the second.

EEFP and TCFL cannot be ordered by “one-hybrid fitness for binding parS DNA” value: at most 0.2 for the first, at most 0.2 for the second.

PNPV and DLIS cannot be ordered by “one-hybrid fitness for binding parS DNA” value: at most 0.2 for the first, at most 0.2 for the second.

ICRS and QMSS cannot be ordered by “one-hybrid fitness for binding parS DNA” value: at most 0.2 for the first, at most 0.2 for the second.

GYEL and GGMT cannot be ordered by “one-hybrid fitness for binding parS DNA” value: at most 0.2 for the first, at most 0.2 for the second.

ALML and WRDW cannot be ordered by “one-hybrid fitness for binding parS DNA” value: at most 0.2 for the first, at most 0.2 for the second.

WAPM and ASDE cannot be ordered by “one-hybrid fitness for binding parS DNA” value: at most 0.2 for the first, at most 0.2 for the second.

LING and MDWC cannot be ordered by “one-hybrid fitness for binding parS DNA” value: at most 0.2 for the first, at most 0.2 for the second.

FWQR and ERSR cannot be ordered by “one-hybrid fitness for binding parS DNA” value: at most 0.2 for the first, at most 0.2 for the second.

SQIS and KTEF cannot be ordered by “one-hybrid fitness for binding parS DNA” value: at most 0.2 for the first, at most 0.2 for the second.

HFIS and HQYG cannot be ordered by “one-hybrid fitness for binding parS DNA” value: at most 0.2 for the first, at most 0.2 for the second.

YDDS and STRA cannot be ordered by “one-hybrid fitness for binding parS DNA” value: at most 0.2 for the first, at most 0.2 for the second.

CMLC and LCVT cannot be ordered by “one-hybrid fitness for binding parS DNA” value: at most 0.2 for the first, at most 0.2 for the second.

HDSG and PKTE cannot be ordered by “one-hybrid fitness for binding parS DNA” value: at most 0.2 for the first, at most 0.2 for the second.

CSYS and GHMT cannot be ordered by “one-hybrid fitness for binding parS DNA” value: at most 0.2 for the first, at most 0.2 for the second.

GYNT and GMKS cannot be ordered by “one-hybrid fitness for binding parS DNA” value: at most 0.2 for the first, at most 0.2 for the second.

GKTD and NNKC cannot be ordered by “one-hybrid fitness for binding parS DNA” value: at most 0.2 for the first, at most 0.2 for the second.

QPWL and SRIF cannot be ordered by “one-hybrid fitness for binding parS DNA” value: at most 0.2 for the first, at most 0.2 for the second.

IYLM and NTNM cannot be ordered by “one-hybrid fitness for binding parS DNA” value: at most 0.2 for the first, at most 0.2 for the second.

QDAR and AYSF cannot be ordered by “one-hybrid fitness for binding parS DNA” value: at most 0.2 for the first, at most 0.2 for the second.

Compared with RGVS, YCTN is lower in “one-hybrid fitness for binding parS DNA” value: 0.516 for the first, at most 0.2 for the second.

YNMS and GSRR cannot be ordered by “one-hybrid fitness for binding parS DNA” value: at most 0.2 for the first, at most 0.2 for the second.

YNTY and MFGA cannot be ordered by “one-hybrid fitness for binding parS DNA” value: at most 0.2 for the first, at most 0.2 for the second.

RHFL and SQRN cannot be ordered by “one-hybrid fitness for binding parS DNA” value: at most 0.2 for the first, at most 0.2 for the second.

RDKD and GFER cannot be ordered by “one-hybrid fitness for binding parS DNA” value: at most 0.2 for the first, at most 0.2 for the second.

HHPS and MPAV cannot be ordered by “one-hybrid fitness for binding parS DNA” value: at most 0.2 for the first, at most 0.2 for the second.

DRHC and MCTC cannot be ordered by “one-hybrid fitness for binding parS DNA” value: at most 0.2 for the first, at most 0.2 for the second.

GPEG and ADGG cannot be ordered by “one-hybrid fitness for binding parS DNA” value: at most 0.2 for the first, at most 0.2 for the second.

MVTH and SSRH cannot be ordered by “one-hybrid fitness for binding parS DNA” value: at most 0.2 for the first, at most 0.2 for the second.

KLHS and SGHV cannot be ordered by “one-hybrid fitness for binding parS DNA” value: at most 0.2 for the first, at most 0.2 for the second.

TPEK and VVPL cannot be ordered by “one-hybrid fitness for binding parS DNA” value: at most 0.2 for the first, at most 0.2 for the second.

LYIG and PYMR cannot be ordered by “one-hybrid fitness for binding parS DNA” value: at most 0.2 for the first, at most 0.2 for the second.

RRHH and RMIP cannot be ordered by “one-hybrid fitness for binding parS DNA” value: at most 0.2 for the first, at most 0.2 for the second.

RTED and PAAR cannot be ordered by “one-hybrid fitness for binding parS DNA” value: at most 0.2 for the first, at most 0.2 for the second.

Compared with RKDC, QIDR is lower in “one-hybrid fitness for binding parS DNA” value: 0.923 for the first, at most 0.2 for the second.

QDML and KWPG cannot be ordered by “one-hybrid fitness for binding parS DNA” value: at most 0.2 for the first, at most 0.2 for the second.

SYVA and DPKF cannot be ordered by “one-hybrid fitness for binding parS DNA” value: at most 0.2 for the first, at most 0.2 for the second.

NLET and YAVR cannot be ordered by “one-hybrid fitness for binding parS DNA” value: at most 0.2 for the first, at most 0.2 for the second.

FVSL and RQAD cannot be ordered by “one-hybrid fitness for binding parS DNA” value: at most 0.2 for the first, at most 0.2 for the second.

RQQR and SHQN cannot be ordered by “one-hybrid fitness for binding parS DNA” value: at most 0.2 for the first, at most 0.2 for the second.

FSAA and EHQT cannot be ordered by “one-hybrid fitness for binding parS DNA” value: at most 0.2 for the first, at most 0.2 for the second.

KAKM and FSNP cannot be ordered by “one-hybrid fitness for binding parS DNA” value: at most 0.2 for the first, at most 0.2 for the second.

For PYEM, the “one-hybrid fitness for binding parS DNA” value was at most 0.2.
